In all, about 310,000 compounds went through this assay and about 14,000 (4.5%) showed an effect of 50% or more. Effects have a minus sign here. The list shows a part of the results.
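Note: peak tail current of the secondary pulse compared with the same well before compound.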

The target of the assay is human ether-à-go-go-related gene (hERG) potassium channel (human, UniProt Q12809). Put plainly: primary screen, population patch clamp on CHO cells stably expressing hERG.
human ether-à-go-go-related gene (hERG) potassium channel, sequence (Q12809 whole entry, looked up): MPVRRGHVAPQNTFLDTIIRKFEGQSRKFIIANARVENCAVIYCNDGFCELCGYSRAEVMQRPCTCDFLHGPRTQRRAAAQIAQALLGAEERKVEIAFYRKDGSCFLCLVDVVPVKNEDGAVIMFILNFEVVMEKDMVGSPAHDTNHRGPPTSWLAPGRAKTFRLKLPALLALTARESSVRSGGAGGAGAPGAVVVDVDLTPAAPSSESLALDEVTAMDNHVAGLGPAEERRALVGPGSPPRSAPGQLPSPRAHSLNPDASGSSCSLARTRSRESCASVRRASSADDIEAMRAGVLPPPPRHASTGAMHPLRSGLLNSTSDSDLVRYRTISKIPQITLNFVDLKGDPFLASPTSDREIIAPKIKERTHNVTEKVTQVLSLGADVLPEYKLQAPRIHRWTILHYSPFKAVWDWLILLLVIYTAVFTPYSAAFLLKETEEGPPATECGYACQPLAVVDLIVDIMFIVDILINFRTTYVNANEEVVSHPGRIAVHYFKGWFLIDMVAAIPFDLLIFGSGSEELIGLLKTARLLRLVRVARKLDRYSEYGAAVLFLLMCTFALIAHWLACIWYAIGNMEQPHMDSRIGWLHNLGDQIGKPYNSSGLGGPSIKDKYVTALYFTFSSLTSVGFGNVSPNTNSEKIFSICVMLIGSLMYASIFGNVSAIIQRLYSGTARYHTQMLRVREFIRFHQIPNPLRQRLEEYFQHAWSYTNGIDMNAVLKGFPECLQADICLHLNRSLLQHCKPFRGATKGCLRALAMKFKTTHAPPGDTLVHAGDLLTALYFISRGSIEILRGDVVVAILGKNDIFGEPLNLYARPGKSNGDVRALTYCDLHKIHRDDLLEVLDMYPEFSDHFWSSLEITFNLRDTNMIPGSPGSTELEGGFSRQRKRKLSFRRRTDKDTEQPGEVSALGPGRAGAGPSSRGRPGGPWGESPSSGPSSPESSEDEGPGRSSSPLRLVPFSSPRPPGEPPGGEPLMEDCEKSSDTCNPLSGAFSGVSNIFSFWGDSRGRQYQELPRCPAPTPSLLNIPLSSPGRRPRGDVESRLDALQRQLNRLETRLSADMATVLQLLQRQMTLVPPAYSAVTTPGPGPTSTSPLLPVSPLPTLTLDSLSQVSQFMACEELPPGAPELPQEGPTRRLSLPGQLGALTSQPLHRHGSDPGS
Consider `Cc1ccc(C(=O)NCCCn2ccnc2)cn1`, for which the “hERG current change (%, negative = inhibition) at 10uM” value amounted to 4.36%.
For `Cn1c(=O)c2nc(-c3ccccc3)oc2c2ccccc21`, the “hERG current change (%, negative = inhibition) at 10uM” value is -1.46%.
With `NC1=NC[C@H](Cc2ccccc2)N1CCc1cccc(F)c1`, the “hERG current change (%, negative = inhibition) at 10uM” value was 6.16%.
For `CCOC1(C(F)(F)F)NC(=O)N(Cc2ccc(OC)cc2)C1=O` (stereo not drawn) the value was -5.95%; for `Cc1cc(C(=O)Nc2ccc(Br)cc2F)n(-c2ccccc2)n1`, -13.3%; for `O=C(Cn1nc(C(=O)O)c2ccccc2c1=O)Nc1cccc(S(=O)(=O)N2CCOCC2)c1`, -25.1%.
For `Cc1ccccc1-c1nc(CS(=O)(=O)CC(=O)N2CCc3ccccc32)c(C)o1` the value was -11.6%.
Consider `O=S(=O)(N/N=C\c1cn(-c2ccccc2)nc1-c1ccccc1)c1ccccc1`, for which the “hERG current change (%, negative = inhibition) at 10uM” value came out at 5.42%.
As to `O=C(Nc1cnccc1C(F)(F)F)NC1CCCCC1`, the “hERG current change (%, negative = inhibition) at 10uM” value is 5.81%.
`COc1ccc(NC(=O)COC(=O)CCc2nc3ccccc3c(=O)[nH]2)c(OC)c1`: the “hERG current change (%, negative = inhibition) at 10uM” value is 7.12%.
For `O=[N+]([O-])c1nn(-c2ccc3c(c2)OCCO3)n(O)c1=NCc1ccc(F)cc1Cl` the value was -7.4%; for `Cc1ccc(OCC(=O)NCCCNC(=O)c2ccncc2)cc1`, 1.84%; for `Cn1nc([N+](=O)[O-])c(C(C#N)c2nc3ccccc3n2C)c(Cl)c1=O` (stereo not drawn), -19.2%.
In the case of `Cc1ccc(S(=O)(=O)N2CCOCC2)cc1C(=O)OC(C)C(=O)c1ccccc1` (stereo not drawn) it was 0.818%; in that of `COc1ccc(C2=NCCNC(C(F)(F)F)=C2)cc1`, -2.67%.
For `CC(=O)n1cc(/C=N/NC(=O)c2ccccc2O)c2ccccc21` the value was 9.58%.
With `COc1cccc(CN2CC(C(=O)N3CCOCC3)CCC2=O)c1` (stereo not drawn), the “hERG current change (%, negative = inhibition) at 10uM” value is listed as 33.3%.
For `C=CCSc1nc2c(c(=O)[nH]c(=O)n2C)n1Cc1ccccc1` the value was -22.3%; for `CCS(=O)(=O)N1CCCC(C(=O)NC2CCCCC2C)C1` (stereo not drawn), 5.94%.
Consider `CC(C)=CCN1CCN(Cc2cc(CC(C)C)n[nH]2)CC1CCO` (stereo not drawn), for which the “hERG current change (%, negative = inhibition) at 10uM” value is -9.57%.
For `O.c1ccc2c(CN3CCN(C4CCCCC4)CC3)c[nH]c2c1` the value was -18.2%.
In the case of `CC(=O)NS(=O)(=O)c1ccc(NC(=O)CSc2ccc(C)cc2)cc1` it was 13.5%.
For `CCOc1ccc(C(CC(=O)O)NC(=O)c2cccs2)cc1OC` (stereo not drawn) the value was 12.6%; for `CCn1c(C(C)NC(=O)c2cccc(C)c2)nc2ccccc21` (stereo not drawn), -19.6%.
In the case of `COc1ccccc1NC(=O)Cn1nc(-c2ccc(Cl)cc2)c2ccccc2c1=O`, the “hERG current change (%, negative = inhibition) at 10uM” value is -0.684%.
In the case of `CCOc1cc(C(=O)N2CCN(c3ccccn3)CC2)cc(OCC)c1OCC` it was 4.95%.
For `Cc1ccc(C(C)NC(=O)Cc2cccs2)c(C)c1` (stereo not drawn) the value was -9.26%.
In the case of `COc1ccccc1CNC(=O)C(=O)NCC1CCCN1S(=O)(=O)c1cccs1` (stereo not drawn) it was -9.48%; in that of `CC(C)(C)NC(=O)COC(=O)c1ccc(S(=O)(=O)N2CCCCCC2)cc1`, 0.654%; in that of `O=C(c1ccccc1)N1CCC2(CC1)NCCc1[nH]cnc12`, 26.6%.
In the case of `O=C(N/N=C/CCc1ccccc1)C1CCCCC1`, the “hERG current change (%, negative = inhibition) at 10uM” value stood at 13%.
In the case of `Cc1cc(NC(=O)CCC2CCCC2)no1` it was -1.81%; in that of `COC(=O)Cc1c(C(=O)OC)nnn1-c1cccc(C(F)(F)F)c1`, 4.71%.
In the case of `O=C(NCCCN1CCOCC1)c1cc(-c2ccc(Cl)s2)nc2ccccc12`, the “hERG current change (%, negative = inhibition) at 10uM” value is recorded as -44.1%.
In the case of `COc1ccc(/C(C)=N/NC(=O)c2nnn(-c3nonc3N)c2CN(C)c2ccccc2)cc1` it was 14.8%; in that of `COc1ccc(/C=C/C(=O)ONC2=NCCCCC2)cc1OC`, 8.3%; in that of `CCOc1ccc(S(=O)(=O)Nc2nccs2)cc1`, 16.9%.
For `COc1ccc(CNC(=O)COC(=O)c2ccccn2)cc1` the value was 21.8%.
In the case of `Cc1ccc(NC(=O)Cc2ccc3c(c2)CCCC3)cc1C` it was -6.8%; in that of `Cc1ccc(NC(=S)NC2CCN(Cc3ccccc3)CC2)c(C)c1`, -12.9%.
As for `O=C(NCC1CCCO1)C1CCN(S(=O)(=O)c2cccnc2)CC1` (stereo not drawn), the “hERG current change (%, negative = inhibition) at 10uM” value is -6.63%.
For `O=C(O)c1cccc(-n2cccc2C=C2C(=O)c3ccccc3C2=O)c1` the value was 15.9%; for `Clc1cccc(/C=N\Nc2nccs2)c1`, -2.59%; for `Cc1nc2ccccc2c(=O)n1-c1ccncc1`, 8.6%.
Turning to `CCCCCn1c(=O)[nH]c2cc(C(=O)NCCCN(CC)CC)ccc2c1=O`, the “hERG current change (%, negative = inhibition) at 10uM” value is -15.5%.
`Cc1cc(/C=C(\C#N)C(=O)NCc2cccs2)c(C)n1-c1ccccc1F`: the “hERG current change (%, negative = inhibition) at 10uM” value is 7.95%.
In the case of `Cc1ccc(Nc2ccc(C(N)=O)cc2[N+](=O)[O-])cc1`, the “hERG current change (%, negative = inhibition) at 10uM” value is reported as 1.53%.
For `CC1CN(C(=S)SCC(=O)c2ccccc2)CC(C)O1` (stereo not drawn) the value was -4.4%; for `Cc1ccccc1NC(=O)c1nn(C)c2c1CS(=O)(=O)c1ccccc1-2`, 5.26%.
In the case of `Cc1ccc(NC(=S)N(CCN2CCOCC2)Cc2cc3cc4c(cc3[nH]c2=O)OCCO4)cc1` it was -14.3%.
In the case of `COc1ccc(CSc2nncn2C)cc1[N+](=O)[O-]` it was 4.92%.
For `CCc1ccc(C(=O)NNC(=O)C2CSC3(C)CCC(=O)N23)cc1` (stereo not drawn), the “hERG current change (%, negative = inhibition) at 10uM” value is listed as -6.99%.
For `CCCCOc1ccc(C(=O)NNC(=O)C2C3CCC(C3)C2C(=O)O)cc1` (stereo not drawn) the value was 5.03%.
For `CCn1nc(C(=O)Nc2nc3ccccc3[nH]2)c2ccccc2c1=O` the value was -25.9%; for `COc1ccc(N2CCN(C(=O)c3ccc4c(c3)CCN4S(=O)(=O)c3ccccc3)CC2)cc1`, -23.2%; for `Cc1cccc2sc(N(CCCN(C)C)C(=O)CCS(=O)(=O)c3ccccc3)nc12`, -35%.
For `CCN(CC)C1CCN(C(=O)CCn2nnnc2CN2CCOCC2)C1` (stereo not drawn) the value was 18.4%.
`S=C1SCN(CC2CC2)CN1CC1CC1`: the “hERG current change (%, negative = inhibition) at 10uM” value was -8.19%.
In the case of `COc1cc(C)c(S(=O)(=O)N2CCN=C2c2ccccc2)cc1C` it was -4.77%; in that of `CCOc1ncccc1C(=O)N(C)CC(=O)Nc1ccc(C)cc1`, -3.99%; in that of `CC(Oc1ccc(Br)cc1)C(=O)Nc1ccc(N2CCOCC2)cc1N1CCOCC1` (stereo not drawn), -43.7%.
For `COc1ccccc1-c1nc(C#N)c(N2CCN(c3ccccc3)CC2)o1` the value was -8.28%; for `COc1ccc(CC2=CC(=O)c3ccccc3C2=O)cc1`, 4.71%; for `O=C(c1ccc(S(=O)(=O)Nc2ccc(F)cc2)cc1)N1CCN(C(=O)c2ccco2)CC1`, -29.4%.
In the case of `O=C(Nn1cnc2ccccc2c1=O)c1cccc(Cl)c1` it was 9.21%; in that of `COc1cc2c(cc1OC)C(C1(O)CCCCC1)NCC2` (stereo not drawn), 15.7%.
For the compound `CCOC(=O)c1c(C)c(C(=O)OCC)n(C)c1C`, the “hERG current change (%, negative = inhibition) at 10uM” value is 3.21%.
In the case of `COc1ccc(O)c(-c2cc(-c3ccccc3[N+](=O)[O-])[nH]n2)c1` it was -11.7%; in that of `COc1ccccc1C(=O)N1CCN=C1c1ccccc1`, -2.18%; in that of `COc1ccc(N2CCN(C(=O)c3cccnc3)CC2)c([N+](=O)[O-])c1`, -70.8%.
For `CSc1ccc(C(=O)C2CCCN(Cc3cccc4nccnc34)C2)cc1` (stereo not drawn) the value was -82.8%; for `CCN(CC)S(=O)(=O)c1ccc2c(c1)N(CC(=O)NCCCN1CC(C)CC(C)C1)C(=O)CO2` (stereo not drawn), -5.66%; for `Clc1ccc(NCc2cccnc2)c(Cl)c1`, 9.74%.
In the case of `COc1ccc(CNC(=O)C(C#N)c2nc3ccccc3nc2N2CCN(C)CC2)cc1` (stereo not drawn) it was -40.4%; in that of `CC(C)OCCCNC(=O)COCC(=O)Nc1ccc(OCCc2ccccc2)cc1`, -25.8%.
For the compound `O=C1Nc2ccccc2C12OCCCO2`, the “hERG current change (%, negative = inhibition) at 10uM” value is -12.1%.
Take `Cc1ccc(CNC(=O)CCNC(=O)Cn2ccc3ccccc3c2=O)cc1`: the “hERG current change (%, negative = inhibition) at 10uM” value was found to be 8.67%.
For `CCc1cccc(CC)c1NC(=O)C[n+]1cccc(C(N)=O)c1.[Cl-]` the value was 6.92%; for `COc1cccc(NC(=S)NC(=O)c2cccnc2)c1`, 9.58%.
For `Cc1ccc(N2C(=O)CC(C)(C)CC2=O)cc1Cl` the value was 13.4%.
In the case of `COc1ccc(-c2nnn(CC(=O)N3CCOCC3)n2)cc1` it was 1.99%; in that of `O=C(COC(=O)c1c(Cl)ccc(Cl)c1Cl)NC(=O)NCc1ccccc1`, -5.52%.
Take `COc1ccc(OC)c(CN2CCN(C(=O)c3ccc(S(=O)(=O)Nc4ccccc4F)cc3)CC2)c1`: the “hERG current change (%, negative = inhibition) at 10uM” value was -25.3%.
As for `C[C@H]([C@H](O)c1ccccc1)N(C)C(=O)CN`, the “hERG current change (%, negative = inhibition) at 10uM” value worked out at 17.9%.
For `CC(=O)N1CCN(c2ccc(NC(=O)C(c3ccccc3)c3ccccc3)cc2)CC1` the value was -2.12%; for `COc1ccc(C2C(C#N)=C(C)NC3=C2C(=O)CC(C)(C)C3)cc1` (stereo not drawn), -5.29%.
For `CCCCCC(=O)Nc1cccc(C2=NOC3(C2)C[C@@H](C(N)=O)N(C(=O)c2cc([N+](=O)[O-])cc([N+](=O)[O-])c2C)C3)c1` (stereo partly drawn) the value was 5.02%; for `COc1ccc(-c2cc(C(=O)N3CCN(c4ccccc4)CC3)c3ccccc3n2)cc1OC`, -7.87%; for `O=C(Nc1ccncc1)c1ccc(Cl)c([N+](=O)[O-])c1`, -1.86%.
In the case of `COc1ccc(C(=O)Nc2c(-c3cccs3)c(=O)c3ccccc3n2C)cc1` it was -1.39%.
